# Test results: the supplement of paper PMC3334620
# Over roughly 33,000 sequences, “E-score (-0.5 to 0.5)” has its median near -0.012; the highest 2% begin near 0.29. The list shows a part of the results.
# Target: T1, Ybr033w (UniProt P38073)
# T1 sequence: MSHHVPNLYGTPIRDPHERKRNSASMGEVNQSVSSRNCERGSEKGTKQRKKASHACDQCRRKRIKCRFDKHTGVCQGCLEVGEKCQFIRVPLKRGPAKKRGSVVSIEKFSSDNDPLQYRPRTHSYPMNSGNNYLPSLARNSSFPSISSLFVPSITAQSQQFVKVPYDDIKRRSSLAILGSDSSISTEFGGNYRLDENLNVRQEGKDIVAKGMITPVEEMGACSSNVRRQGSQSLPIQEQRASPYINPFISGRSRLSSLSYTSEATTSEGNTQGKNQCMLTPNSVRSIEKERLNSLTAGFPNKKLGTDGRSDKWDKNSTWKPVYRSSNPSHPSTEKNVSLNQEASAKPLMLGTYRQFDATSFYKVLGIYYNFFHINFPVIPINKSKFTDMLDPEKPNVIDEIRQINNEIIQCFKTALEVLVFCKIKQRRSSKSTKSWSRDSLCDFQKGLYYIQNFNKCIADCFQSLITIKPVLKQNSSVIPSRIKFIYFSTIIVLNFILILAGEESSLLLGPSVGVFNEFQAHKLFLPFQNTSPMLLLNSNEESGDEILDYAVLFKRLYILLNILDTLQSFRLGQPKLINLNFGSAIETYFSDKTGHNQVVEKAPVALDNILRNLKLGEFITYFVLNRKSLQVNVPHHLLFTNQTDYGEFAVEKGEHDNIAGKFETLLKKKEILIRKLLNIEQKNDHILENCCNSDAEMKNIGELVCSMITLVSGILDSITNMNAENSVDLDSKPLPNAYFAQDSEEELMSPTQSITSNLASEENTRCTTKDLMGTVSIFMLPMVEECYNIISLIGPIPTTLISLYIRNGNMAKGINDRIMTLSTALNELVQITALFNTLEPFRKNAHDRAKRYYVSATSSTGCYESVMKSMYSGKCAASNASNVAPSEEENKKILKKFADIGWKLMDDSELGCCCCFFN
# Assay: PBM E-score (8-mer binding enrichment) (E-score (-0.5 to 0.5)); higher = stronger / more preferred TF binding; most listed sequences are background and not binding sites
# Conditions: protein concentration: 200 nM; construct: GST-full length
# Experimental: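 Universal 'all 10-mer' protein binding microarrays (Agilent AMADID 015681) probed with GST-tagged S. cerevisiae TFs (full-length or DBD) made by in vitro transcription/translation (PURExpress), about 100-200 nM. Bound TF was detected with fluorescent anti-GST. Each ungapped 8-mer (which stands for itself and its reverse complement) is scored by the PBM enrichment score (E-score), a modified Wilcoxon-Mann-Whitney statistic from -0.5 to +0.5, computed with the Universal PBM Analysis Suite. Scale: above 0.35 generally sequence-specific binding.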
row,Sequence,PBM E-score
1,ATTGCCGA,-0.0189
2,AGAATGGA,0.0873
3,CTTCCCCA,-0.233
4,CCAATTTA,0.203
5,CCAGTAAC,0.0247
6,AACGCCTC,-0.181
7,CTAAAGTA,-0.0425
8,GGTGTACA,-0.0339
9,ACTGTCTC,0.0553
10,TCTGGACA,-0.237
11,ACAGAGCG,-0.0319
12,ATTGTGCG,-0.0415
13,ACTTAAGT,0.177
14,AGCTTCGA,0.0258
15,AGGATTCG,-0.0751
16,CATGAGTA,-0.097
17,CCCGTCTA,-0.00318
18,CATTACCG,0.00401
19,CGATTAAC,0.103
20,GAGGGGAC,-0.243
21,ACACATCA,0.0197
22,ACAGACCG,-0.105
23,AATCATGT,0.0978
24,GGTCCTCA,0.0869
25,AGGTGACA,0.0143

row,Sequence,PBM E-score
1,ACATAACA,0.127
2,AATGGCAG,-0.0191
3,AGTCACCA,-0.164
4,ATATTTGA,0.213
5,ATGCCTTA,-0.0248
6,GAGTTTGC,-0.00724
7,CACTTAAG,0.144
8,CTAAGCTC,-0.191
9,ACGGCCCT,-0.225
10,ATGGTGCG,-0.00722
11,GCCCATGA,-0.141
12,GCACGCCC,-0.155
13,GCTAAATA,0.222
14,CTATCTTA,-0.026
15,CAAATGTA,0.216
16,CCGGGTGC,-0.181
17,CTCAACAG,0.0082
18,AGGTTACT,-0.034
19,CAGCGGAA,0.0404
20,CAATATCA,0.171
21,GTCAGAAC,-0.0207
22,CCGACCCG,-0.197
23,GACGATTA,-0.0748
24,GGAGTTAC,0.202
25,AATCACAC,0.112

row,Sequence,PBM E-score
1,GAAGACGC,-0.164
2,CACCCCGG,-0.21
3,TAGGCGCA,-0.108
4,CCATGGCA,-0.173
5,CACAATCG,0.0764
6,ACCCGGGA,0.078
7,GCGGAGTA,0.0577
8,CCGCTAAC,-0.0857
9,GAAACAGC,-0.145
10,AATGGGCC,-0.259
11,ATCACAGC,0.0343
12,CCCATCAC,-0.253
13,CGAGAAGC,-0.153
14,ACCGGTCG,-0.224
15,CTGTCATA,0.0448
16,CCCTGATC,-0.244
17,ACTCCGCA,0.0152
18,ACAGAACA,0.253
19,CCTGCTAC,-0.116
20,AGGTCTGA,0.0768
21,AGCAGTGG,0.0536
22,GACGGAAC,0.0393
23,TTATCCAA,0.258
24,AACGCCGA,-0.0724
25,CTGCGACC,-0.0743

row,Sequence,PBM E-score
1,GGACAATA,0.202
2,ATAGCGGA,0.0982
3,CTAGCTTA,0.107
4,AGCGGAAC,0.14
5,GACAGCGC,-0.0316
6,CCTTGCCG,-0.227
7,ACTCGAGG,-0.117
8,AGAAAAAT,0.269
9,AAGAGGCA,-0.0229
10,GTTGTATA,0.0745
11,AAGTAGCT,0.0343
12,AGAACAAG,0.212
13,AATGATCC,0.421
14,AGTTAGAG,-0.0838
15,CTGTTTCC,0.0114
16,CACGTGCC,-0.243
17,CCAAGCAA,0.106
18,GTTAGTGA,0.107
19,AGAATTGA,0.14
20,AAAGTCGG,-0.122
21,ACGTGTGC,-0.152
22,CCTGTAAC,-0.00887
23,GCCATAGC,-0.116
24,AAATCATC,0.205
25,AAAAATGT,0.22

row,Sequence,PBM E-score
1,AGACTCTG,-0.108
2,CCCAACAC,-0.132
3,CACTATGA,0.0588
4,ACTATAAT,0.23
5,AGGAAATC,-0.0432
6,CCACAAAA,0.165
7,ACGTTGCG,-0.0283
8,ACCCTTCC,-0.0151
9,CAGATTCA,-0.0416
10,GTGGTAAA,0.0442
11,GATTCTGC,0.0635
12,ACTTCGGC,0.0421
13,ATCAAACG,0.0557
14,GCGATCGA,-0.038
15,GCTAATTA,0.175
16,ATCCCGAT,0.0252
17,ATTGAAAA,0.289
18,ATTACTGC,0.225
19,AGCTCCCA,-0.267
20,GTAGAGAA,0.0434
21,CCAACTAA,0.21
22,AAAAACTC,0.19
23,CCAGAATA,0.0783
24,AACATCTA,-0.0243
25,ACCGTGCA,-0.154

row,Sequence,PBM E-score
1,CCACTTCA,-0.0798
2,CACGGTCC,-0.282
3,CTTTAGCA,-0.044
4,CGGAAGAC,0.00735
5,AAGTTGGA,0.0901
6,ACATGTGG,0.202
7,GCCTTAAA,0.0714
8,ACGCCCAT,-0.0933
9,CATCAGAC,-0.0601
10,CACTATTA,0.026
11,CGGTTTAA,-0.124
12,CGTTAGGA,0.0877
13,GCAGAAAA,0.227
14,CCATGAGG,-0.216
15,CGATATTA,0.336
16,ACCCATGG,-0.203
17,CTTTCATC,-0.0337
18,TCATACGA,0.11
19,CGCGGCCC,-0.288
20,GAGCTGAC,0.0999
21,AACGTAAG,-0.012
22,CTTGCAGC,-0.0792
23,GATTCTGA,0.136
24,ATCTTTAC,0.203
25,CAATACTG,0.0464

row,Sequence,PBM E-score
1,CACCTACA,-0.157
2,GCAAGCTA,0.0445
3,ATTAGATC,0.0257
4,AACTGACT,0.0811
5,GCGTACAC,-0.12
6,ATCGGATG,-0.0464
7,ACTACAAA,0.232
8,TTAGCTAA,0.0309
9,ACCACAAG,-0.0473
10,CGGTCCGC,-0.267
11,ATTGCGTG,0.079
12,ACGATCCG,-0.0459
13,GGTCGAGA,-0.114
14,ATGTCGAG,-0.113
15,TAATCGTA,0.214
16,CCCAAAAA,-0.19
17,AGAGGATC,-0.0233
18,TCCTGAGA,-0.049
19,AAGTAATA,0.0769
20,GCACACAC,-0.0996
21,GTCCACAA,0.0077
22,CCGCCTAC,-0.114
23,ACCTAATG,-0.141
24,AGTTCAAT,0.0607
25,CCAAGAAC,-0.122

row,Sequence,PBM E-score
1,AGCGAAAA,0.144
2,ATGGCCAG,0.0317
3,TCAACGAA,0.0502
4,CAATCTTA,0.148
5,AACGCGGT,-0.0462
6,ACTTTCCC,-0.00052
7,CTTGTTTA,0.18
8,GTATGCCA,-0.188
9,ACCTTGCA,-0.0761
10,CCGTGATC,-0.192
11,ACCAGCGG,-0.0315
12,CCCTTTCC,-0.192
13,ACCAACAA,0.284
14,AAAGAGAA,0.0579
15,CCTCAAGA,0.0867
16,AGGTAACT,0.0991
17,AGCCGGCC,-0.0824
18,ACCTACTC,-0.0816
19,AAGCTTGA,0.00734
20,CACGGTCA,-0.101
21,AAGTCAGA,-0.0299
22,GAAATATC,0.231
23,AGTATGTC,0.106
24,GCCCAAAC,0.0101
25,CCCCCAGA,-0.409

row,Sequence,PBM E-score
1,AGAGAAGA,0.102
2,ACGACGAA,0.0882
3,ACTCTACT,0.0812
4,AAAGTCTT,-0.0391
5,TTGAAAAA,0.237
6,CGTAATTC,0.0565
7,AACTTATG,0.223
8,ATTGCGTC,-0.0218
9,CACCCAAC,-0.136
10,CTTAACCC,-0.0993
11,ACTTGCAG,-0.0578
12,CGCCAGTC,-0.126
13,ATAAGCTA,0.0566
14,ATATCGGA,0.18
15,CAGCCTGG,-0.125
16,CTCCTACC,-0.0519
17,TACCCGTA,0.0736
18,AGACTGTG,-0.155
19,CTAATGTC,0.135
